In the supplement of paper PMC8728848:
This excerpt belongs to a sample that is enriched for the strongest signals.

tested on: Neu5Ac(a2-3)Gal(b1-4)Glc; test: glycan array binding signal (z-score within array); higher = stronger binding; conditions: glycan notation: IUPAC condensed, linker removed
Method in brief: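 Glycan array data were curated from 3228 arrays in the Consortium for Functional Glycomics database and kept only where the protein sequence was available. Glycan names were converted to IUPAC-condensed notation, and columns mapping to the same glycan were averaged. The binding signal is a within-array Z-score, averaged across arrays of the same protein sequence at different concentrations or buffers and across linkers. Negative Z-scores can be read as non-binding.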

Row | Substance | glycan array binding signal (z-score)
1 | L-Ficolin (Homo sapiens) (chain not printed) | -0.385
2 | Gal 8-short (Homo sapiens) (chain not printed) | 1.19
3 | VWF (Homo sapiens) (chain not printed) | -0.24
